# Data published in the supplement of paper PMC10126150.
# Values marked as one replicate rest on one cluster of the flow cell; about a third of the high ones do not repeat.
# System: ATP
# Experiment: switch fluorescence ratio, 500 uM ATP over buffer (Cy3 cluster intensity, sum of 5 cycles each) (fold (ratio)); higher = stronger signal-on switching upon ATP binding; sequences stand for … in TCGTCGGCAGCGTCAGATGTGTATAAGAGACAGTTTTTTTTTTTTTTTTTTTTTTTTT…TC
# Conditions: aptamer strand: ATP DNA aptamer (quencher-CACCTGGGGGAGTATTGCGGAGGAAGG + anchor), 100 nM annealed; ATP concentration: 500 uM; one replicate
# In short: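 The quencher-labelled ATP aptamer, at 100 nM, was annealed to Cy3-labelled switching-strand clusters on a modified Illumina MiSeq flow-cell. The clusters were imaged in selection buffer, then after 15 min with 500 uM ATP at 22 °C, and this buffer/ATP cycle ran five times with NaOH stripping and re-annealing between runs. Per-cluster fluorescence ratios, summed target-cycle over summed buffer-cycle Cy3 intensity, were averaged per switch-domain sequence. Clusters outside 100-1000 RFU were excluded.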
# 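Further: ATP exposure 15 min at 22 °C before imaging.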
row,Sequence,switch fluorescence ratio
1,TCTACCACAT,1.04
2,GGCGGGAGCC,1.05
3,AAGTGTGTGT,0.965
4,ATAGCCGAAA,1.01
5,AGCCTGTGCC,0.981
6,TGCTTTCCGT,1.05
7,ATTCTGCGGG,1.05
8,TGGGCTTCAC,1.02
9,GCAGCGGCTA,1.04
10,CGTTTACCTC,0.943
11,TTTCTGGTGG,0.965
12,GGCAATGACG,1.05
13,CAGTCTCTAG,0.979
14,TAATAGCGAA,1.01
15,TCGCTGCCCG,1.03
16,CACAGAGCGG,0.994
17,TTACGTAGG,1.05
18,TGAGGGAATA,1.13
19,AGGGAGATAC,1.05
20,CACCGGGTAG,1.18
21,CGAAAAGGAT,0.99
22,TACGTCGTAG,1.02
23,ACATCAGATA,1.06
24,GAACTAAACT,1.01
25,TGGAAGGCAG,1.02

row,Sequence,switch fluorescence ratio
1,GAGTAGCAAG,1.03
2,GGGTAATTCG,0.98
3,GGTACACTTC,1.05
4,TGGAACCAGG,1.3
5,AGAAGTTCT,0.956
6,TGTGGGCATA,0.976
7,ACGCCAGTCT,1
8,CAACTTTGT,0.974
9,GGCAAATTCA,1.06
10,CACCAGCTAA,1.17
11,GGCCTGAGAA,0.991
12,GATTTCTCAT,1.02
13,CTGGAGTATG,0.996
14,AGCCCGGATG,1.01
15,AAACCTGATA,1.02
16,CATGCTAGCT,0.997
17,ACGAGTGGGG,1.03
18,GGCTGCTACT,1.03
19,TAAATGGCT,0.985
20,GAACGTGTTG,0.993
21,GACTTACCGT,1.17
22,TCACATAACG,1.24
23,AAAAAAGCGC,0.999
24,TTCTTTTGGA,0.967
25,ACAGGTCAAG,1

row,Sequence,switch fluorescence ratio
1,TAGGGGTTTC,0.984
2,GGAGGGGAAA,1.03
3,GACATTACGT,1.44
4,TCAATTACCA,1.01
5,GGAACGCATT,1.18
6,CCACCGGTG,1.69
7,ATTGGGGCAG,0.979
8,CAAGCGTTTT,0.998
9,TTCTAGGACA,1.02
10,AGTGAAGTGT,1
11,GGTAATAAAG,0.987
12,TTTATACGCA,1.2
13,TTATTGATTA,1.01
14,GCGGCCGGCG,1.11
15,GTGGGCTCTC,1.01
16,CTGTGGGAGT,1.02
17,TAGGAACAAA,0.981
18,ACGCGATGAT,1.05
19,TGAAACCGCG,1.52
20,TGTTACAGCC,1.01
21,GGAAGCGCCT,0.969
22,TTGATAGTTT,1.05
23,CTCTTCCAGA,0.972
24,GTTTCTAAGA,0.997
25,TTATACGTGG,1.07

row,Sequence,switch fluorescence ratio
1,TGTAGGGCGC,1.03
2,ACTGTTATCA,1.06
3,AAAAGGGCGA,1
4,CCTTGGTAGT,1.04
5,CCTTACAATG,1.31
6,GCTACGGTTG,0.996
7,GGGACTAAAT,0.95
8,GCTTTCGACT,1.08
9,CACTATTAAT,1.02
10,TTTGGCCAAC,1.07
11,TTTTGGCCCA,0.967
12,ACCATCAGAA,1.03
13,TACGTTGCGA,1.02
14,GAGTCGCTTT,0.969
15,TTTAACTTTT,0.994
16,TAACGGAGGA,0.976
17,GGTTCATGCG,1.03
18,GTTGACGTTA,0.994
19,TTGATCAATT,1.01
20,AAGACTGCGT,1.01
21,CGGGACAGAT,0.986
22,CGTAGCCGGT,1.05
23,CTGCCGTCGA,0.992
24,GTGGATCGGA,0.986
25,GGTTCCGGTT,0.982

row,Sequence,switch fluorescence ratio
1,CGGCGGTCGA,0.974
2,CACTGGTTCT,1.02
3,AGCACTTCGT,0.976
4,CTGCGGATAA,1.12
5,CAAAAGGA,0.98
6,GAATCCAACA,0.974
7,TAGCGCCATA,1.04
8,GTGCAGGGAG,0.967
9,CGACAGGCGG,0.982
10,AGAATTTTGT,1.11
11,TTGGATTCCT,1.04
12,CACTAATGTA,1.01
13,GCGCTTAGGG,0.962
14,AATTCATATG,0.942
15,TTTTACATCT,1.03
16,TAGCAGTCTG,1.02
17,CCAGACGATG,0.972
18,GCCATTAGCG,0.972
19,GCCGGGGTGG,1.07
20,AGAAAGTTGC,1.08
21,GATTAAGGAT,1.02
22,TTTCGGCCGT,0.983
23,AGGGCTAGTG,0.985
24,CGTGACCAGA,1.1
25,CGGTCCATCT,0.974

row,Sequence,switch fluorescence ratio
1,TCGGGGTAGA,1.03
2,CAGACTCCGC,3.68
3,CATGGTTTCC,0.995
4,GCGTATTCAG,1.02
5,TTGCTTTATA,0.981
6,GCGCCGTCTT,1.04
7,AACCTACAGA,1.2
8,CGTCTACCTA,1.05
9,TCCTATGTGG,1.03
10,TGTCGGGTTT,0.949
11,AGTATCTAGG,1.01
12,TTGAGAGT,1.03
13,GCTTAGACTT,0.944
14,GTTATTGAGA,1.01
15,CATGTTCTGG,0.951
16,AGATACGATC,1.02
17,GGTGGAAATT,1.07
18,GTGATAATTG,1.18
19,TTATTGTTGC,1.01
20,TTTTAATCAA,0.989
21,GAGCACCTAA,1.06
22,AGCTGCTCTA,1.07
23,TGGATCAGC,1.02
24,CAAATACAAT,0.991
25,GAACTTAAAC,1.09

row,Sequence,switch fluorescence ratio
1,ACCACTAACC,1.12
2,AACCATCAAC,1.01
3,TTTCGAAGGC,0.986
4,CTAAGTAGGC,0.991
5,TGTCGACCCC,1.04
6,GACGGCCCTG,0.946
7,TACCATCGTT,1
8,CTAGCTGCGT,0.955
9,ACAGAGGCTA,0.995
10,ATGTTGTTAT,1.01
11,GTGCTTGATT,0.978
12,GGGTTTAACG,0.958
13,AGGGGCGCAT,1.02
14,CAAGTCTTTC,0.984
15,ACGGACACTA,1.2
16,GCTTGGCCGA,1.01
17,TTCTGTGCTG,0.979
18,CGTAGGCTGT,0.956
19,TAGATCTACC,1.04
20,CGATGTGCTC,1.08
21,AGTATGAACT,1.04
22,GTGGATGTGC,1.07
23,AGGGCGGTCC,1.03
24,GAAAGGAAGT,1.01
25,GGAATTAGT,0.986

row,Sequence,switch fluorescence ratio
1,GGACTGAGCG,0.911
2,GATTGGATTC,1
3,TCATCTTGCA,1.04
4,TACCTTCAAT,1.08
5,AGCCTGTGAA,0.984
6,TTCATTCAGC,1.02
7,CCTCGCGGGT,1.53
8,GTCGACTCAA,1.04
9,TAAGCTTAGA,0.97
10,GTGTGCTTCA,1.02
11,AAGCATCCA,1.02
12,CGCCGCTGTG,1.4
13,GCCCGGGGGC,1.05
14,TATATTGATA,1.02
15,GCTCTGGTCA,0.957
16,AGTTCTTGTG,0.962
17,TCCGAATCCG,1.07
18,CAATTCATT,0.981
19,CTAGTACTGC,0.974
20,CTATAGGTC,0.989
21,TGTTTAACTT,0.992
22,TAATACGGT,0.967
23,TTCATTCGGC,1.02
24,ATTAGGTACT,1.02
25,CATCTGGCCT,1.54
